# Test results published in the RNAGym collection of RNA variant scans (doi:10.1093/nar/gkz1192).
# Read counts are not given, so values of variants with three or more changes are uncertain.
# B1: CPEB3 Ribozyme (parent)
# chain: UAACAGGGGGCCACAGCAGAAGCGUUCACGUCGCAGCCCCUGUCAGAUUCUGGUGAAUCUGCGAAUUCUGCUGUAUAUCUC
# Variants of: B1
# Test: self-cleavage, relative activity (ratio to wild type); higher = more cleavage; in vitro, sequencing
# Procedure, shortened: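 Relative activity compares each variant's cleaved/total read fraction with that of the unmutated ribozyme. To get these fractions, barcoded CPEB3 ribozyme libraries from rounds of error-prone PCR were transcribed with T7 RNA polymerase for 5 hours at 37°C and then given 15 min of DNase I treatment before EDTA was added. The RNAs were reverse transcribed with template switching and sequenced on Illumina, and DNA sequencing linked barcodes to variants. A minimum of 5 reads applied, and three batches were averaged.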
row,Variant,self-cleavage
1,UAACGGGGGGCCACAGCGGAAGCGUACACGUCACAGCCCCUGACAGAUUCUGGUGAAUCUGCGAAUUCCGCUGUAUAUCUC,0.11
2,UAACGGGGGGCCACAGCGGAAGCGUCCACGUCGCAGCCCCUGUCAGAUUCUGGUGAUCCUGCGCAUUCUGCUGUAUACCUC,0.12
3,UAACGGGGGGCCACAGCGGAAGCGUCCACGUCGCAGCCCCGGUCAGAUUCUGGUGAAUCUGCGAAUUCUGCUGUAUAUCUC,0.3
4,UAACGGGGGGCCACAGCGGAAGCGUUCACGUCGCAGCCCCUGUCAGACUCUGGUGAAUCUGCGAAUUCUGCUGUAUAUCUC,0.63
5,UAACGGGGGGCCACAGCGGAAGCGUUCACGUCGCAGCCCCUGUCAGAUUCUGGCGAGUCUGCGAAUUCUGCUGUAUAUCUC,0.09
6,UAACGGGGGGCCACAGCGGAAGCGUUCACGUCGCAGCCCCUGUCAGAUUCUGGCGAGUCUGCGAACUCUGCUGUAUAUCUC,0
7,UAACGGGGGGCCACAGCGGAAGCGUUCACGUCGCAGCCCCUGUCAGAUUCUGGGGGAUCUGCGAAUUCUGCAGUAUAUCUC,0.14
8,UAACGGGGGGCCACAGCGGAAGCGUUCACGUCGCAGCCCCUGUCAGAUUCUGGUGAAACUGCGAAUUCUGCUGUAUAACUC,0.66
9,UAACGGGGGGCCACAGCGGAAGCGUUCACGUCGCAGCCCCUGUCAGAUUCUGGUGAAUCUGCGAAUUCUGCCGUAUAUCUC,0.55
10,UAACGGGGGGCCACAGCUGAAGCGUUCACGUCGCUGCCCCAGUCAGAUUCUGGUGAAUCUGCGAAUUCUGCUGUAUAUCCC,0.39
11,UAACGGGGGGCCACAGCUGAAGCGUUCACGUCGCAGCCCCUGUCGGAACCUGGUGAAUCUGCGGAUUCUGCUGUAUAUCUC,0.29
12,UAACGGGGGGCCACAGCUGAAGCGUUCACGUCGCAGCCCCUGUCUGACUCCGGUGAAUCUGCGAAUUCUGCUGUGUAUCUC,0
13,UAACGGGGGGCCACAGCUGAAGCGUUCACGUCGCAGCCCCUGUCAGGUUCUGGUGAGUCUGCGAAUUCUGCUGCAUAUCUC,0.2
14,UAACGGGGGGCCACAGCUGAAGCGUUCACGUCGCAGCCCCUGUCAGAUUCUGGUGGAUCUGCGAAUACUGCUGUAUAUCCC,0.35
15,UAACGGGGGGCCACAGCUGAAGCGUUCAAGUCGCAGCACCUGUCAGAUUCAGGUGAUUCUGCGAAUUCUGCUGUAUAUCUC,0.4
16,UAACGGGGGGCCACAGCUGAAGCGUUCACGUCGUAGCCCCCGUCAGAUUCUGGUGAAUCUGGGAAUUCUGCUGUAUAUCUC,0.39
17,UAACGGGGGGCCACAGCUGAAGCGUUCACGUCGCAGCCCUUGUCAGAUUCUGGUGAAUCUGCGAAUUCUGCUGUAUAUCUC,0.12

row,Variant,self-cleavage
1,UAACGGGGGGCCACAGCUGAAGCCUUCACAUCGCAGCCCCUGUCAGAUUCUGGUGAAUCUGCGAAUUCUGCUGUAUAUCUC,0.08
2,UAACGGGGGGCCACAGCUGAAGCGUUCACUUCGCAGCCCCUGUCAGAUUCCGGUGAAUCUGCGAAUUCUGCUGUAUAUCUC,0.08
3,UAACGGGGGGCCACAGCUGAAGCGCUCACGUCGCUGCCCCUGACAGAUUCUGGUGAGUCUGCGAAUUCUGAUGUAUAUCUC,0.07
4,UAACGGGGGGCCACAGCUGAAGCGUUCACGUCGCAGCCCCAGUCAGAUUCUGGUGAAUCUGCGAAUUCUGCUGUAUAUCAC,0.16
5,UAACGGGGGGCCACAGCUGAAGCGUUCACGUCGCAGCCCCUGCCAGAUUCUGGUGAAUCUGCGAAUUCUGCUGUAUAUCUC,0.18
6,UAACGGGGGGCCACAGCAGCAGCGUUCACGUCGCAGCCCCCGACAGAUUCUGGUGAAUCUGCGAACUCUGCUGUAUAUCUC,0.43
7,UAACGGGGGGCCACAGCAGCAGCGUUCACGUCGCAGCCCCUGUCAGAUUCUGGUGAAUCUGCGAAUUCUGCUGCAUAUCUC,0.11
8,UAACGGGGGGCCACAGCAGGGGCGAUCACAUCGCAGCCCCUGUCAGAUUCUGGUGAAACUGCGAAUUCUGCUGUAUAUCUC,0.07
9,UAACGGGGGGCCACAGCAGGGGCGCUCACGUCGCAGCCCCUGUCAGAUCCUGGUGAACCUGCGAAUUCUGCUGUAUAUCUC,0.16
10,UAACGGGGGGCCACAGCAGGAGCGUUCGCGUCGCAGCCCCUGUCAGAUUCUGGUGAAUCUGCGAAUUCUGCUGUAUAUCUC,0.52
11,UAACGGGGGGCCACAGCAGGAGCGUUCGCGUCGCAGCCCCUGACAGAUUCUGGUGAAUCUGCGAAUUCUGCUGUAUAUCUC,0.26
12,UAACGGGGGGCCACAGCAGGAGCGUUCACGUCGCUGCCCCUGUCCGAUUCUGGUGAAUCUGCGAAUUCUGCUGUAUAUCUC,0.48
13,UAACGGGGGGCCACAGCAGGAGCGUUCACGUCGCUGCCCCUGCCAGAUUCUGGUGAAUCUGCGAAUUCUGCUGUAUAUCUC,0.21
14,UAACGGGGGGCCACAGCAGGAGCGUUCACGUCGCUGCCCCUGUCAGAUUCUGGUGAAUCCGCGAAUUCUGCUGUAUAUCUC,0.32
15,UAACGGGGGGCCACAGCAGGAGCGUUUGCGUCGCAGCCCCUGUCAGAUUCUGGUGAAUCUGCGAAUUCUGCUGUAUAUCUC,0.04
16,UAACGGGGGGCCACAGCAGGAGCGUUCACGUCGCAGCCCCUGUCAGAUUCUGGUGAAUUUGCGAAUUCUGCUGUAUAUCUC,0.61
17,UAACGGGGGGCCACAGCAGGAGCUUUCACGUCGCAGCCCCUGUCAGAUUCUGGUGAAUCUGCGAAUUCUGCUGUAUAUCUC,0.1
